# Data as given in PMC5700166.
# This is a selection; strong and weak results do not stand in their true shares. The list includes weakly bound sequences.
# What was measured:
# Assay in all cases: protein-binding microarray (PBM)
# Details in all cases: PBM: ~300 nM protein, 6 mM HEPES pH 7.8, 80 mM KCl, 0.5 mM EDTA, 0.5 mM EGTA, 6% glycerol, 35 ng/ul poly-dIdC, 1% milk, 1 h, room temperature; Ap Aiptasia and Nv Nematostella (sea anemones) / Co Capsaspora / Aq Amphimedon (sponge) / Dm Drosophila / Hu human; RHD is the Rel homology domain; high values mean tight binding; most listed sequences are background and not binding sites; double strand, one strand shown
# [1] = biological target: T1, GST-Ap-NF-kB RHD (UniProt A0A913YAJ5)
# T1 sequence: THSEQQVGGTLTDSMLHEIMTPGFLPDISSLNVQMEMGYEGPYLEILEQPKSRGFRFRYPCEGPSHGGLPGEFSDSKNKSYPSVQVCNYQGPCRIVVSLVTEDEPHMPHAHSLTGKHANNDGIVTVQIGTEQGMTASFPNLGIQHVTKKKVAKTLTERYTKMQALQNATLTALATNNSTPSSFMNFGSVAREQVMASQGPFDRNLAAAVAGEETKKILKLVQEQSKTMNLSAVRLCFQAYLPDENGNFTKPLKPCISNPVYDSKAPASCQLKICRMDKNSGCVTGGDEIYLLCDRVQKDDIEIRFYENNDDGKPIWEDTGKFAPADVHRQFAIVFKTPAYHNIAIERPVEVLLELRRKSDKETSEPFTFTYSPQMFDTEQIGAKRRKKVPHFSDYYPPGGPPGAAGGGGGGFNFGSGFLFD
# [2] = biological target: T2, GST-Nv-NF-kB (Cys allele) (UniProt E5G601)
# T2 sequence: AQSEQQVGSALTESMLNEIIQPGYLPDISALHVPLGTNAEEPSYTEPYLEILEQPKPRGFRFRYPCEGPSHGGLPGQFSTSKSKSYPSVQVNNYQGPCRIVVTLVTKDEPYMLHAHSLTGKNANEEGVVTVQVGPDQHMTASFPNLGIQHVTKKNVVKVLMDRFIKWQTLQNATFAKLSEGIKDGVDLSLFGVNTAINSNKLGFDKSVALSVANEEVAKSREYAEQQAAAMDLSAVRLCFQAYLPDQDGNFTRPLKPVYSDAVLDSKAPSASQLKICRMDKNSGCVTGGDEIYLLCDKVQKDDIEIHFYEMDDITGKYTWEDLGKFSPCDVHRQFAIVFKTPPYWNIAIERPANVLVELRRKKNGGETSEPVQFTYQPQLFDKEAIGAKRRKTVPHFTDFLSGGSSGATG
# [3] = biological target: T3, GST-Co-NF-kB (UniProt F1ARL5)
# T3 sequence: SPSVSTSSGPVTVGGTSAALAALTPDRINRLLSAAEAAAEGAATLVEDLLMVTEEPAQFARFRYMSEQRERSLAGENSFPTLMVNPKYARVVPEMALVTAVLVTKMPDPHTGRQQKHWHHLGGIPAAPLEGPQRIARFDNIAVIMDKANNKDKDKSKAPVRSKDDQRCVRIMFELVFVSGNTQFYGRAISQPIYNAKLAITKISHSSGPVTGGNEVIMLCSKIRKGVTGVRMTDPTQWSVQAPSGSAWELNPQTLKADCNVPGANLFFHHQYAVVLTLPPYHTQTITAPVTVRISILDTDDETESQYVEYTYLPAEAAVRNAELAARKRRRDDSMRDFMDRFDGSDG
Sequence,binding signal [1] [z-score],binding signal [2] [z-score],binding signal [3] [z-score]
CCGATTAACATCAGGAAACCCACTGATGTTAATCGGGTCTTGATTCGCTTGACGCTGCTG,0.87,0.263,0.256
CCGATTAACATCAGGATTTTTTATGATGTTAATCGGGTCTTGATTCGCTTGACGCTGCTG,0.539,-0.459,-0.0669
CCGATTAACATCAGAAACCCCCATGATGTTAATCGGGTCTTGATTCGCTTGACGCTGCTG,7.61,6.32,2.76
CCGATTAACATCAGGGGGGGACATGATGTTAATCGGGTCTTGATTCGCTTGACGCTGCTG,5.67,5.09,7.08
CCGATTAACATCAGGGGAAAGTATGATGTTAATCGGGTCTTGATTCGCTTGACGCTGCTG,6.56,7.79,7.64
CCGATTAACATCAGGAAGACCCCTGATGTTAATCGGGTCTTGATTCGCTTGACGCTGCTG,3.9,3.08,0.79
CCGATTAACATCAAGGAAATACCTGATGTTAATCGGGTCTTGATTCGCTTGACGCTGCTG,1.2,0.957,0.431
CCGATTAACATCAAGGATTTTCCTGATGTTAATCGGGTCTTGATTCGCTTGACGCTGCTG,-0.043,-0.00154,0.0974
CCGATTAACATCAGGTCTTTCCATGATGTTAATCGGGTCTTGATTCGCTTGACGCTGCTG,0.0246,-0.097,-0.505
CCGATTAACATCAAATTCCCGTATGATGTTAATCGGGTCTTGATTCGCTTGACGCTGCTG,2.44,4.38,2.65
CCGATTAACATCACAGGGAATTCTGATGTTAATCGGGTCTTGATTCGCTTGACGCTGCTG,4.57,5.56,3.45
CCGATTAACATCACGGGATCTCCTGATGTTAATCGGGTCTTGATTCGCTTGACGCTGCTG,2.16,0.527,0.247
CCGATTAACATCACAGGAATTCCTGATGTTAATCGGGTCTTGATTCGCTTGACGCTGCTG,0.686,0.532,0.104
CCGATTAACATCAGGGCATCCCATGATGTTAATCGGGTCTTGATTCGCTTGACGCTGCTG,1.37,0.625,0.215
CCGATTAACATCACGGAATTTCCTGATGTTAATCGGGTCTTGATTCGCTTGACGCTGCTG,0.0152,0.0768,0.284
CCGATTAACATCACGGGGGATTATGATGTTAATCGGGTCTTGATTCGCTTGACGCTGCTG,7.59,6.57,6.84
CCGATTAACATCAAAAATTCCGTTGATGTTAATCGGGTCTTGATTCGCTTGACGCTGCTG,-0.517,0.189,0.187

Sequence,binding signal [1] [z-score],binding signal [2] [z-score],binding signal [3] [z-score]
CCGATTAACATCAAGGGGAATCCTGATGTTAATCGGGTCTTGATTCGCTTGACGCTGCTG,9.67,11,5.17
CCGATTAACATCAAGGAATGCCCTGATGTTAATCGGGTCTTGATTCGCTTGACGCTGCTG,1.68,0.894,-0.191
CCGATTAACATCAGGGGGATGTATGATGTTAATCGGGTCTTGATTCGCTTGACGCTGCTG,4.97,4.88,4.13
CCGATTAACATCAAATCATTCCCTGATGTTAATCGGGTCTTGATTCGCTTGACGCTGCTG,1.6,3.39,3.4
CCGATTAACATCAAAGGAATTTCTGATGTTAATCGGGTCTTGATTCGCTTGACGCTGCTG,0.0876,0.555,-0.154
CCGATTAACATCAGGTATTTTACTGATGTTAATCGGGTCTTGATTCGCTTGACGCTGCTG,0.529,0.961,0.667
CCGATTAACATCAACGGAATTCCTGATGTTAATCGGGTCTTGATTCGCTTGACGCTGCTG,0.102,0.482,0.208
CCGATTAACATCAAATTCCCCCGTGATGTTAATCGGGTCTTGATTCGCTTGACGCTGCTG,9.52,8.91,11
CCGATTAACATCAGGAAATCCACTGATGTTAATCGGGTCTTGATTCGCTTGACGCTGCTG,-0.015,0.000445,0.0456
CCGATTAACATCAAGGAAATTCCTGATGTTAATCGGGTCTTGATTCGCTTGACGCTGCTG,0.575,0.47,0.829
CCGATTAACATCAAAAAAATTTCTGATGTTAATCGGGTCTTGATTCGCTTGACGCTGCTG,-0.138,0.382,-0.38
CCGATTAACATCAATGGGTTTCCTGATGTTAATCGGGTCTTGATTCGCTTGACGCTGCTG,0.711,0.257,0.768
CCGATTAACATCAGAATTTCCCATGATGTTAATCGGGTCTTGATTCGCTTGACGCTGCTG,3.88,5.46,4.63
CCGATTAACATCAGGACTTTACATGATGTTAATCGGGTCTTGATTCGCTTGACGCTGCTG,0.245,0.0854,-0.0589
CCGATTAACATCAAAAAGCCCCTTGATGTTAATCGGGTCTTGATTCGCTTGACGCTGCTG,7.33,9.57,0.314
CCGATTAACATCAAAAAGTTTCCTGATGTTAATCGGGTCTTGATTCGCTTGACGCTGCTG,-0.142,0.717,0.79
